Test results taken from patent US8372973B2, “Prokineticin 1 receptor antagonists” (Janssen Pharmaceutica N.V., priority 2005, dated 2013).

Test system: rat ileal tissues

B1: PK1: Recombinant human prokineticin-1 from HEK 293 cells, FLAG epitope cleaved; mixture of full-length ligand and four C-terminal residue truncated product (protein)
chain: AVITGACERDVQCGAGTCCAISLWLRGLRMCTPLGREGEECHPGSHKVPFFRKRKHHTCPCLPNLLCSRFPDGRYRCSMDLKNINF
modifications: mixture with C-terminal truncated product; Recombinant N-terminal FLAG-tagged human prokineticin-1 after enterokinase cleavage of Flag-tag
effect on tissue conductance (G): no significant effect | EC50 (read-out: EC50 of PK1-evoked increases in Isc, cumulative concentration-response, basolateral addition): ~8.2 nM
